In the supplement of paper PMC10338343:
± gives the standard deviation. Only a part is listed here, and it is no random draw.

system: MIWI (PIWIL1) piRISC loaded with L1MC piRNA (30 nt); assay: pre-steady-state target cleavage rate (min^-1); MIWI and MILI are mouse PIWI proteins and EfPiwi is from a freshwater sponge; tags in brackets are library labels; higher = faster piRNA-guided slicing of the target; conditions: guide: L1MC piRNA 5'p-UAACUAAAUACUAUGCAAGCUGUAGGUCCU; auxiliary factor: 500 nM mouse GTSF1
Outline: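 The pre-steady-state cleavage rate came from a burst-and-steady-state fit to pooled data from three Cleave-'n-Seq trials, in which uncleaved targets were sequenced and normalised to depth and to weakly complementary targets. Each reaction held 0.1 nM transcribed, DNA-blocked target RNA library and 1 nM active affinity-purified piRISC carrying one synthetic guide, with or without 500 nM GTSF1 partner protein, in HEPES–potassium acetate buffer at 33 °C for 0–8 or 0–960 min. k3 was capped at 0.0001 min^-1.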

Sequence	pre-steady-state target cleavage rate
UCGACCUACUGCUUGCAUAGUAUUUAGAUA	0.273 ± 0.023
UCCUGGAACAGCUUGCAUAGUAUUUGAGUUA	0.504 ± 0.054
UGGACCUACUGCUUGCAUAGUAUUUUGUUA	0.808 ± 0.046
AGGUCCAACAGCUUGCAUAGUAUUUAGUUA	1.5 ± 0.04
AGGACCUACACCUUGCAUAGUAUUUAGUAA	0.838 ± 0.068
UGGACCUACAGCUUGCAAAGUAAUUAGUUA	0.73 ± 0.048
UCCUGGAUCACCUUGGAUAGUAUUUAGUUA	0.317 ± 0.036
UCGACCUACAGCUAUGCAUAGUAUUUAGUUA	1.14 ± 0.067
UCGACCUACAGCAUCCAUAGUAUUUAGUUA	0.137 ± 0.028
UCCUGCAACAGCUUGCAUAGUAUUAAGUUA	0.732 ± 0.046
UGGACCUACUGCUUCCAUAGUAUUUAGUUA	0.0331 ± 0.0053
UCCUGGAUCAGCUUGCAUAGUAUUAAGAAA	0.134 ± 0.025
UCCUCCUACAGCUUGCUUAGUAUUUUGUUA	0.663 ± 0.035
UCCUCCUACAGCUUGCAUAGUAUUUCAGUUA	0.859 ± 0.093
UCCUGGAUCAGCUUGCAUAGUAUUUGAGUUA	0.521 ± 0.057
UCCUGGUACAGCUUGCAUAGAAUUAAGUUA	0.219 ± 0.04

same assay, conditions: guide: L1MC piRNA 5'p-UAACUAAAUACUAUGCAAGCUGUAGGUCCU; auxiliary factor: none (no GTSF1)

Sequence	pre-steady-state target cleavage rate
UCCUGGAUGAGCUUGGUUAGUAUUUAGUUA	0.00784 ± 0.0026
UGGACCUACACCUUGCAUAGUAAUUAGUUA	0.0215 ± 0.0063
UCCUGGUACAGCUUGCAAAGUAAUUAGUUA	0.0142 ± 0.004
UCCUGGUUCAGCUUGCUUAGUAUUUAGUUA	0.0378 ± 0.0086
AGGACCUACAGCUUGCAUAGUAUUAGUUA	0.00372 ± 0.003
UCCUGGAUGUGCUUGCAUGGUAUUUAGUUA	0.0348 ± 0.0072
UCGACCUACUGCUUGCAUAGUAUAUAGUUA	0.0363 ± 0.0084
UCCACCUACAGCUUGCAUAGUAUUUCGUUA	0.0257 ± 0.006
AGGACCAUGAGCUUGCAUAGUAUUUAGUUA	0.0664 ± 0.012
UGGACCUACAGCUAGCUUAGUAUUUAGUUA	0.0122 ± 0.0034
UGGACCUAGAGCUUCCAUAGUAUUUAGUUA	0.00226 ± 0.0018
UCCUGCUACAGCUUGCAUACUUUUUAGUUA	0.00652 ± 0.0018
UCCUCCUACAGCUUGCAUAGUAAUUAGUUA	0.0211 ± 0.0055
UCCUGCUACAGCUUGCAUAGUAUUUGGUUA	0.0301 ± 0.0052
UCCUGGAUGAGCUUGCAUAAUAUUUAGUUA	0.0246 ± 0.0064
AGGACCUACAGCUUGCAUAGUAUUAACUUA	0.00949 ± 0.0032
UCCUGCUACAGCUUGCAUAGUCUUUAGUUA	0.0195 ± 0.0047
UCCACCUACAGCAUGCAUAGUAUUUAGUAA	0.0121 ± 0.0037
UCCUGGAACAGGUUGCAUAGUAUUUAGUUA	0.0411 ± 0.0088
UCGACCUACAGCUUGCAUAGUAUUCAGUUA	0.0403 ± 0.0073

Sequence	pre-steady-state target cleavage rate
UCCUGGAUGUGCUUGCAUAGUAUUUCGUUA	0.015 ± 0.0034
UGGACCUACAGCUUGCAUAGUAUUUAAUUA	0.0278 ± 0.0048
UCGACCUAGAGCUUGCAUAGUAAUUAGUUA	0.0164 ± 0.0037
UCCUGGAUGACCUUGCAUAGUUUUUAGUUA	0.00589 ± 0.0016
UCGACCUACUGCUUGCAUAGUAUUUAGAUA	0.0197 ± 0.0035
UCCUGGAACAGCUUGCAUAGUAUUUGAGUUA	0.0299 ± 0.0081
UGGACCUACUGCUUGCAUAGUAUUUUGUUA	0.0544 ± 0.01
AGGUCCAACAGCUUGCAUAGUAUUUAGUUA	0.0907 ± 0.014
AGGACCUACACCUUGCAUAGUAUUUAGUAA	0.0538 ± 0.0089
UGGACCUACAGCUUGCAAAGUAAUUAGUUA	0.0109 ± 0.0039
UCCUGGAUCACCUUGGAUAGUAUUUAGUUA	0.00731 ± 0.0027
UCGACCUACAGCUAUGCAUAGUAUUUAGUUA	0.0393 ± 0.0097
UCGACCUACAGCAUCCAUAGUAUUUAGUUA	0.00199 ± 0.0019
UCCUGCAACAGCUUGCAUAGUAUUAAGUUA	0.0229 ± 0.0047
UGGACCUACUGCUUCCAUAGUAUUUAGUUA	0.00429 ± 0.0015
UCCUGGAUCAGCUUGCAUAGUAUUAAGAAA	0.00372 ± 0.0026
UCCUCCUACAGCUUGCUUAGUAUUUUGUUA	0.0126 ± 0.0024
UCCUCCUACAGCUUGCAUAGUAUUUCAGUUA	0.012 ± 0.0034
UCCUGGAUCAGCUUGCAUAGUAUUUGAGUUA	0.0198 ± 0.005
UCCUGGUACAGCUUGCAUAGAAUUAAGUUA	0.00659 ± 0.0019
